Assay [1] deals with Magnaporthe grisea. Format: in vivo. The settings on record: for control value, Test A (blast on rice): Table 7, Test A; for Test A control value: Blast on rice.
Assay [2] relates to Colletotrichum orbiculare. The settings on record: 250 ppm sprayed (2.5 ml/pot) before inoculation; assessed 6 to 10 days after inoculation.
The test system of assay [3] is Phytophthora infestans. Format: in vivo. The settings on record: for control value, Test F (late blight on tomato): Table 7, Test F; for Test F control value: Late blight on tomato.

Each structure is given as a SMILES string.

For the compound `CCn1c(-c2ccc(F)cc2F)c(-n2cc(F)cn2)cc(Cl)c1=O` [Compound 251], the “control value, Test A (blast on rice)” value in assay [1] was “H (H shows the control value more than 50%)”. Besides, the “control value, Test H (anthracnose on cucumber)” value (“control value, Test H” below) in assay [2] is “H (H shows the control value more than 50%)”. In addition, in assay [3], the “control value, Test F (late blight on tomato)” value (from here on “control value, Test F”) is given as “L (L shows the control value of 50% or less)”.

As for `O=c1c(Br)cc(-n2cc(Cl)cn2)c(-c2ccc(F)cc2Br)n1CC(F)F` [Compound 275], the “control value, Test A (blast on rice)” value in assay [1] was “H (H shows the control value more than 50%)”. For the same compound, the “control value, Test H” value in assay [2] is recorded as “L (L shows the control value of 50% or less)”. For the same compound, in assay [3], the “control value, Test F” value is recorded as “L (L shows the control value of 50% or less)”.

Consider `CCn1c(-c2c(F)cccc2F)c(-c2ncc(OC)o2)cc(Cl)c1=O` [Compound 162], for which the “Test A control value” in assay [1] is “L (L shows the control value of 50% or less)”. Also, the “Test F control value” in assay [3] is on record as “L (L shows the control value of 50% or less)”.

As to `CCn1c(-c2ccc(OC)cc2Br)c(-n2cc(Cl)cn2)cc(Cl)c1=O` [Compound 167], the “Test A control value” in assay [1] is given as “H (H shows the control value more than 50%)”. The “Test F control value” in assay [3] is reported as “L (L shows the control value of 50% or less)”.

Consider `CCOc1cc(F)c(-c2c(-n3cc(F)cn3)cc(Br)c(=O)n2CC)c(F)c1` [Compound 317], for which the “control value, Test A (blast on rice)” value in assay [1] is recorded as “L (L shows the control value of 50% or less)”. The “control value, Test F” value in assay [3] was “L (L shows the control value of 50% or less)”.

`COc1ccc(-c2c(-n3cc(Cl)cn3)cc(Br)c(=O)n2CC(F)F)c(F)c1` [Compound 215]: the “control value, Test A (blast on rice)” value in assay [1] is on record as “H (H shows the control value more than 50%)”. For the same compound, in assay [2], the “control value, Test H” value is on record as “H (H shows the control value more than 50%)”. The “control value, Test F” value in assay [3] is listed as “H (H shows the control value more than 50%)”.

`O=c1c(Br)cc(-n2cc(Cl)cn2)c(-c2c(F)cc(F)cc2F)n1CC(F)F` [Compound 207]: in assay [1], the “control value, Test A (blast on rice)” value was “H (H shows the control value more than 50%)”. In addition, the “control value, Test H” value in assay [2] is given as “H (H shows the control value more than 50%)”. Moreover, in assay [3], the “control value, Test F” value was “L (L shows the control value of 50% or less)”.

In the case of `COc1ccc(-c2c(-n3cc(Cl)cn3)cc(Br)c(=O)n2CC(F)F)c(Cl)c1` [Compound 240], in assay [1], the “control value, Test A (blast on rice)” value was “L (L shows the control value of 50% or less)”. Moreover, the “control value, Test H” value in assay [2] is recorded as “H (H shows the control value more than 50%)”. The “control value, Test F” value in assay [3] is recorded as “L (L shows the control value of 50% or less)”.

Consider `CCn1c(-c2ccccc2Cl)c(-n2cc(F)cn2)cc(Br)c1=O` [Compound 313], for which the “control value, Test A (blast on rice)” value in assay [1] was “H (H shows the control value more than 50%)”. In addition, the “control value, Test H” value in assay [2] is “H (H shows the control value more than 50%)”. Also, in assay [3], the “control value, Test F” value is “L (L shows the control value of 50% or less)”.

In the case of `Cc1cnn(-c2ccc(=O)n(CC(F)F)c2-c2ccc(F)cc2F)c1` [Compound 254], in assay [1], the “control value, Test A (blast on rice)” value is “H (H shows the control value more than 50%)”. In addition, the “control value, Test H” value in assay [2] was “H (H shows the control value more than 50%)”. Besides, the “control value, Test F” value in assay [3] was “L (L shows the control value of 50% or less)”.

Take `Cc1cnn(-c2cc(Br)c(=O)n(C)c2-c2c(F)cccc2F)c1` [Compound 188]: the “control value, Test A (blast on rice)” value in assay [1] is given as “H (H shows the control value more than 50%)”. The “control value, Test H” value in assay [2] is reported as “H (H shows the control value more than 50%)”. Also, the “control value, Test F” value in assay [3] is listed as “L (L shows the control value of 50% or less)”.

Source of the values: US11178870B2 (priority 2017, dated 2021).
